Experimental data as given in paper PMC12167477, “Setdb1 and Atf7IP form a hetero-trimeric complex that blocks Setdb1 nuclear export” (The Journal of Biological Chemistry, 2025).
Results are given in words; binding and its absence hold for the method and conditions named. Binding seen in cells or lysates may run through a third protein. Some results given as binding are weak or reduced against the parent protein; the word gives no strength. Where a sequence is shown, tags or fusion partners need not be part of it.

T1: Atf7IP2(297-388), his-sumo- or Strep-tagged (UniProt Q5U623)
T1 sequence: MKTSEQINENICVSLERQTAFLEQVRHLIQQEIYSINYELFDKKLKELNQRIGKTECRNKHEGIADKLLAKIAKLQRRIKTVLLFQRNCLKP

T2: full-length Atf7IP2, Flag- or Myc-tagged (UniProt Q5U623)
T2 sequence: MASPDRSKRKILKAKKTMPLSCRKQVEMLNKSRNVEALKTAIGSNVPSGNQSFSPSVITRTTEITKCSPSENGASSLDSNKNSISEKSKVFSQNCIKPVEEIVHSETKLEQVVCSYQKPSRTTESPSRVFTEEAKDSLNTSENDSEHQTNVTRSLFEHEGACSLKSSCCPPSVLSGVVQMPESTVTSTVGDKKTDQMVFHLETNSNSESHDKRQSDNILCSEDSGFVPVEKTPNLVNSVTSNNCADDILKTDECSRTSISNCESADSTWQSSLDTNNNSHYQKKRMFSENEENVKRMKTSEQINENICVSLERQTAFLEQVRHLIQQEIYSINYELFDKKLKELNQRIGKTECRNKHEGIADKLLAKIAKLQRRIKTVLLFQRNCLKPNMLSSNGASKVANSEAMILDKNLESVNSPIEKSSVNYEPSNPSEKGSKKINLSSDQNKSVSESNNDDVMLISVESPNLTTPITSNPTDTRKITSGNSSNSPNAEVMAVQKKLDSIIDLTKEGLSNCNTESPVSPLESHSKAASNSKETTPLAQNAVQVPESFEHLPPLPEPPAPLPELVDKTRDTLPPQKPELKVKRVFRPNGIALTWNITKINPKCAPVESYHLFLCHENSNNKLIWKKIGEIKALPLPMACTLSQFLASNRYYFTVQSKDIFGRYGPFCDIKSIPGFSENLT

B1: Atf7IP2(297-388), his-sumo- or Strep-tagged (domain or fragment, UniProt Q5U623 297-388, looked up)
chain: MKTSEQINENICVSLERQTAFLEQVRHLIQQEIYSINYELFDKKLKELNQRIGKTECRNKHEGIADKLLAKIAKLQRRIKTVLLFQRNCLKP
notes: Atf7IP2, coiled coil region, residues 297-388; Two differently tagged copies of one fragment, written as one molecule; in the mixed trimer with Atf7IP only the Strep-tagged copy was there; also called his-sumo-Atf7IP2(297-388); Strep-Atf7IP2(297-388); not shown: His6-SUMO (one copy) or Strep (the other copy), N-terminal, kept
B2: his-sumo-Atf7IP(574-666) (domain or fragment, human, UniProt Q6VMQ6 574-666, looked up)
chain: EEEYEAEFQVKITAKGDINQKLQKVIQWLLEEKLCALQCAVFDKTLAELKTRVEKIECNKRHKTVLTELQAKIARLTKRFEAAKEDLKKRHEH
notes: not shown: His6, N-terminal, kept; SUMO, N-terminal, kept
B3: full-length Atf7IP2, Flag- or Myc-tagged (protein, UniProt Q5U623 1-682)
chain: MASPDRSKRKILKAKKTMPLSCRKQVEMLNKSRNVEALKTAIGSNVPSGNQSFSPSVITRTTEITKCSPSENGASSLDSNKNSISEKSKVFSQNCIKPVEEIVHSETKLEQVVCSYQKPSRTTESPSRVFTEEAKDSLNTSENDSEHQTNVTRSLFEHEGACSLKSSCCPPSVLSGVVQMPESTVTSTVGDKKTDQMVFHLETNSNSESHDKRQSDNILCSEDSGFVPVEKTPNLVNSVTSNNCADDILKTDECSRTSISNCESADSTWQSSLDTNNNSHYQKKRMFSENEENVKRMKTSEQINENICVSLERQTAFLEQVRHLIQQEIYSINYELFDKKLKELNQRIGKTECRNKHEGIADKLLAKIAKLQRRIKTVLLFQRNCLKPNMLSSNGASKVANSEAMILDKNLESVNSPIEKSSVNYEPSNPSEKGSKKINLSSDQNKSVSESNNDDVMLISVESPNLTTPITSNPTDTRKITSGNSSNSPNAEVMAVQKKLDSIIDLTKEGLSNCNTESPVSPLESHSKAASNSKETTPLAQNAVQVPESFEHLPPLPEPPAPLPELVDKTRDTLPPQKPELKVKRVFRPNGIALTWNITKINPKCAPVESYHLFLCHENSNNKLIWKKIGEIKALPLPMACTLSQFLASNRYYFTVQSKDIFGRYGPFCDIKSIPGFSENLT

Key:
[1] = target: T1, Atf7IP2(297-388), his-sumo- or Strep-tagged; experiment: pull-down; three tagged proteins co-expressed in E. coli, complex purified sequentially by the his tag and then the strep tag; SDS-PAGE
[2] = target: T2, full-length Atf7IP2, Flag- or Myc-tagged; experiment: co-IP; HEK293 cells transiently co-transfected; lysis in 30 mM HEPES pH 7.9, 400 mM NaCl, 10% glycerol, 0.05% Tween-20, 2 mM BME, Benzonase; anti-DYKDDDDK magnetic beads, FLAG peptide elution, blots with anti-FLAG, anti-HA, anti-Myc

Row | Binder | binding [1] | binding [2]
1 | B1 | binds | –
2 | B2 | binds | –
3 | B3 | – | binds
